Laboratory results from the supplement of paper PMC10369915.
Some of the results follow. Rule as the data show it: active = 3.2 or more and inactive = the rest. Most of these values are background signal.

biological target: SHP2 C-SH2 domain E139D; test: enrichment score (SH2-bound / input frequency) (ratio); bacterial display of known human phosphotyrosine sites (pTyr-Var adds point mutants) read by sequencing; higher = stronger binding; tyrosines were phosphorylated by kinases first; conditions: peptide library: pTyr-Var
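Also: displayed peptides selected on beads carrying the immobilized SH2 domain, with library peptides lacking any tyrosine serving as negative controls.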

Enrichment score, inactive:
ACQGKYTPSSQ [ALDOA_Y343_G347S] 0.742, LEHCQYVTEKV [ALDOB_Y204] 0.883, NDHHFYLEGTL [ALDOB_Y223_V222F] 1.2, KLSFSYGQALQ [ALDOB_Y302_R304Q] 0.777, TIMTDYNPNYC [ALK_Y1092] 0.595, TIMTNYNPNFC [ALK_Y1092_D1091N_YF] 0.932, TIMTDYNPNFC [ALK_Y1092_YF] 0.823, AFGEVYEGQES [ALK_Y1131_V1135E] 0.729, MTRDIYRASFF [ALK_Y1278_A1274T_YF] 0.778, MALDIYRASYY [ALK_Y1278_R1275L] 1.94, MAQDIYRASYY [ALK_Y1278_R1275Q] 0.802, MAQDIYRASFF [ALK_Y1278_R1275Q_YF] 1.21, MARDISRASYY [ALK_Y1278_Y1278S] 0.862, MARDIYRASFF [ALK_Y1278_YF] 1.02, ISRASYYRKGG [ALK_Y1282_Y1278S] 0.271, SRASFYRKGGC [ALK_Y1283_Y1278S_YF] 0.333, FRASFYRKGGC [ALK_Y1283_YF] 0.337, IYLADCRIMEG [ALOX12B_Y318_Y318C] 0.713, IFLADCRIMEG [ALOX12B_Y318_Y318C_YF] 0.923

biological target: SHP2 C-SH2 domain wild-type; test: as above; conditions: peptide library: pTyr-Var

Enrichment score, inactive:
ACQGKYTPSSQ [ALDOA_Y343_G347S] 0.649, LEHCQYVTEKV [ALDOB_Y204] 1.4, NDHHFYLEGTL [ALDOB_Y223_V222F] 1.18, KLSFSYGQALQ [ALDOB_Y302_R304Q] 0.859, TIMTDYNPNYC [ALK_Y1092] 0.661, TIMTNYNPNFC [ALK_Y1092_D1091N_YF] 1.25, TIMTDYNPNFC [ALK_Y1092_YF] 0.896, AFGEVYEGQES [ALK_Y1131_V1135E] 0.569, MTRDIYRASFF [ALK_Y1278_A1274T_YF] 0.787, MALDIYRASYY [ALK_Y1278_R1275L] 1.73, MAQDIYRASYY [ALK_Y1278_R1275Q] 0.76, MAQDIYRASFF [ALK_Y1278_R1275Q_YF] 0.848, MARDISRASYY [ALK_Y1278_Y1278S] 0.868, MARDIYRASFF [ALK_Y1278_YF] 0.965, ISRASYYRKGG [ALK_Y1282_Y1278S] 0.295, SRASFYRKGGC [ALK_Y1283_Y1278S_YF] 0.25, FRASFYRKGGC [ALK_Y1283_YF] 0.274, IYLADCRIMEG [ALOX12B_Y318_Y318C] 0.796, IFLADCRIMEG [ALOX12B_Y318_Y318C_YF] 1.17

biological target: SHP2 N-SH2 domain L43F; test: as above; conditions: peptide library: pTyr-Var

Enrichment score, inactive:
ACQGKYTPSSQ [ALDOA_Y343_G347S] 0.725, LEHCQYVTEKV [ALDOB_Y204] 0.914, NDHHFYLEGTL [ALDOB_Y223_V222F] 1.26, KLSFSYGQALQ [ALDOB_Y302_R304Q] 0.862, TIMTDYNPNYC [ALK_Y1092] 0.597, TIMTNYNPNFC [ALK_Y1092_D1091N_YF] 0.844, TIMTDYNPNFC [ALK_Y1092_YF] 0.882, AFGEVYEGQES [ALK_Y1131_V1135E] 0.647, MTRDIYRASFF [ALK_Y1278_A1274T_YF] 0.99, MALDIYRASYY [ALK_Y1278_R1275L] 1.77, MAQDIYRASYY [ALK_Y1278_R1275Q] 0.926, MAQDIYRASFF [ALK_Y1278_R1275Q_YF] 0.993, MARDISRASYY [ALK_Y1278_Y1278S] 0.813, MARDIYRASFF [ALK_Y1278_YF] 0.932, ISRASYYRKGG [ALK_Y1282_Y1278S] 0.234, SRASFYRKGGC [ALK_Y1283_Y1278S_YF] 0.217, FRASFYRKGGC [ALK_Y1283_YF] 0.238, IYLADCRIMEG [ALOX12B_Y318_Y318C] 0.924, IFLADCRIMEG [ALOX12B_Y318_Y318C_YF] 0.937

biological target: SHP2 N-SH2 domain T42A; test: as above; conditions: peptide library: pTyr-Var

Enrichment score, inactive:
ACQGKYTPSSQ [ALDOA_Y343_G347S] 0.67, LEHCQYVTEKV [ALDOB_Y204] 1.17, NDHHFYLEGTL [ALDOB_Y223_V222F] 1.18, KLSFSYGQALQ [ALDOB_Y302_R304Q] 0.798, TIMTDYNPNYC [ALK_Y1092] 0.858, TIMTNYNPNFC [ALK_Y1092_D1091N_YF] 0.787, TIMTDYNPNFC [ALK_Y1092_YF] 0.739, AFGEVYEGQES [ALK_Y1131_V1135E] 0.493, MTRDIYRASFF [ALK_Y1278_A1274T_YF] 0.728, MALDIYRASYY [ALK_Y1278_R1275L] 1.65, MAQDIYRASYY [ALK_Y1278_R1275Q] 0.567, MAQDIYRASFF [ALK_Y1278_R1275Q_YF] 0.871, MARDISRASYY [ALK_Y1278_Y1278S] 0.722, MARDIYRASFF [ALK_Y1278_YF] 0.848, ISRASYYRKGG [ALK_Y1282_Y1278S] 0.269, SRASFYRKGGC [ALK_Y1283_Y1278S_YF] 0.297, FRASFYRKGGC [ALK_Y1283_YF] 0.303, IYLADCRIMEG [ALOX12B_Y318_Y318C] 0.678, IFLADCRIMEG [ALOX12B_Y318_Y318C_YF] 0.907

biological target: SHP2 N-SH2 domain T52S; test: as above; conditions: peptide library: pTyr-Var

Enrichment score, inactive:
ACQGKYTPSSQ [ALDOA_Y343_G347S] 0.726, LEHCQYVTEKV [ALDOB_Y204] 0.861, NDHHFYLEGTL [ALDOB_Y223_V222F] 1.23, KLSFSYGQALQ [ALDOB_Y302_R304Q] 1.09, TIMTDYNPNYC [ALK_Y1092] 0.657, TIMTNYNPNFC [ALK_Y1092_D1091N_YF] 0.933, TIMTDYNPNFC [ALK_Y1092_YF] 0.756, AFGEVYEGQES [ALK_Y1131_V1135E] 0.771, MTRDIYRASFF [ALK_Y1278_A1274T_YF] 1.09, MALDIYRASYY [ALK_Y1278_R1275L] 1.71, MAQDIYRASYY [ALK_Y1278_R1275Q] 0.751, MAQDIYRASFF [ALK_Y1278_R1275Q_YF] 0.985, MARDISRASYY [ALK_Y1278_Y1278S] 0.558, MARDIYRASFF [ALK_Y1278_YF] 0.985, ISRASYYRKGG [ALK_Y1282_Y1278S] 0.26, SRASFYRKGGC [ALK_Y1283_Y1278S_YF] 0.261, FRASFYRKGGC [ALK_Y1283_YF] 0.295, IYLADCRIMEG [ALOX12B_Y318_Y318C] 0.957, IFLADCRIMEG [ALOX12B_Y318_Y318C_YF] 0.868

biological target: SHP2 N-SH2 domain wild-type; test: as above; conditions: peptide library: pTyr-Var

Enrichment score, inactive:
ACQGKYTPSSQ [ALDOA_Y343_G347S] 0.646, LEHCQYVTEKV [ALDOB_Y204] 1.22, NDHHFYLEGTL [ALDOB_Y223_V222F] 1.18, KLSFSYGQALQ [ALDOB_Y302_R304Q] 1.05, TIMTDYNPNYC [ALK_Y1092] 0.882, TIMTNYNPNFC [ALK_Y1092_D1091N_YF] 1.36, TIMTDYNPNFC [ALK_Y1092_YF] 1.04, AFGEVYEGQES [ALK_Y1131_V1135E] 0.668, MTRDIYRASFF [ALK_Y1278_A1274T_YF] 1.03, MALDIYRASYY [ALK_Y1278_R1275L] 1.73, MAQDIYRASYY [ALK_Y1278_R1275Q] 0.86, MAQDIYRASFF [ALK_Y1278_R1275Q_YF] 1.09, MARDISRASYY [ALK_Y1278_Y1278S] 0.631, MARDIYRASFF [ALK_Y1278_YF] 1.08, ISRASYYRKGG [ALK_Y1282_Y1278S] 0.293, SRASFYRKGGC [ALK_Y1283_Y1278S_YF] 0.23, FRASFYRKGGC [ALK_Y1283_YF] 0.209, IYLADCRIMEG [ALOX12B_Y318_Y318C] 1.3, IFLADCRIMEG [ALOX12B_Y318_Y318C_YF] 1.09
